Source: PubChem BioAssay AID1460 (National Center for Advancing Translational Sciences (NCATS), 2008)
The whole screen tested about 270,000 compounds, of which about 5,800 (2.1%) were called active. Inconclusive results, whose numbers are uncertain, are shown with a selection of clear calls. Calls follow the shape of the dose curve; as a rule, active = well fitted inhibition curve with a large enough effect; inconclusive = small, poorly fitted or top-dose-only effect; inactive = flat fitted curve, though single readings scatter. Potencies beside an inconclusive call are fits to weak or partial responses and may not hold up.

Target: Microtubule-associated protein tau (Homo sapiens) (UniProt P10636)
Assay: qHTS for Inhibitors of Tau Fibril Formation, Thioflavin T Binding; also: nearly all actives have a fitted effect of over 55% in size
Settings: recombinant tau K18 P301L (four-repeat tau fragment), heparin-induced fibrillization, ThT fluorescence; series mostly up to 57.4 µM
Summary of the method: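 Tau K18 P301L fragment (15 uM unlabeled plus 0.24 uM Alexa 594-labeled) in 100 mM sodium acetate pH 7 with compound, fibrillization induced by 20 uM heparin for 6 hr at 37 C. Thioflavin T (30 uM) added, fluorescence read after 1 hr (ex 450, em 510 nm).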
Potency is read from the fitted curve at half-maximal effect; tags tell the direction and shape of the fitted curve.

Chain of UniProt P10636 (P10636 whole entry, looked up): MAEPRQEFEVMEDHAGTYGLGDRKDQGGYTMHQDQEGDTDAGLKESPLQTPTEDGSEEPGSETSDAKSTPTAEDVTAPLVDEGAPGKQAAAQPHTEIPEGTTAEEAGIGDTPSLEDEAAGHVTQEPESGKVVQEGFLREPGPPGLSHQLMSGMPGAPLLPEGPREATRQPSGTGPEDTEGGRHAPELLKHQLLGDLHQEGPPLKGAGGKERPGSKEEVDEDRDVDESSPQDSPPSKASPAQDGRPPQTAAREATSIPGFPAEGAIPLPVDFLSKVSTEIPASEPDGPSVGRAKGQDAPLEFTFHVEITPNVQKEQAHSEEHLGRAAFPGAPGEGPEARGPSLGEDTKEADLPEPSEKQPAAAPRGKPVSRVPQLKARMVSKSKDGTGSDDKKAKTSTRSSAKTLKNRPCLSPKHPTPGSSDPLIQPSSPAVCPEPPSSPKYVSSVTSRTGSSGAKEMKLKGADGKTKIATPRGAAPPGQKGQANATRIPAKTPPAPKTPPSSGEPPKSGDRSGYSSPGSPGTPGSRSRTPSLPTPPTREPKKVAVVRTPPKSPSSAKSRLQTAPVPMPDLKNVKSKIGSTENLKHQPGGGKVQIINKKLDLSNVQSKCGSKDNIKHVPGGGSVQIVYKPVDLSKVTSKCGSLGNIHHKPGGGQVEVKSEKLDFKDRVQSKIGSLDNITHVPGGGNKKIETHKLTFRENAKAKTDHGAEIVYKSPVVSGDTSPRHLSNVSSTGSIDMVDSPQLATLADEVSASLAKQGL

With `Cc1nn2c([nH]c(=O)c3ccccc32)c1C=O` as the compound, how does the Potency read?
Its Potency is “inactive”.

Which Potency does the source give for `CCc1cc2ccc(OC)cc2nc1SCC(=O)NNC(=O)c1ccco1` here?
Its Potency is inconclusive: 11.2 µM [inhibitor, partial curve].

How did the Potency turn out when `C=CCc1ccc(O)c(OC)c1` was run?
Its Potency is “inactive”.

With `Cc1cccc(-n2c(C)cc(C=C3C(=O)c4ccccc4C3=O)c2C)c1` as the compound, how does the Potency read?
The Potency was inconclusive: 7.94 µM [inhibitor, partial curve].

`CS(=O)(=O)Nc1cccc(-c2nc(NCc3cccs3)c3ccccc3n2)c1` was tested. Which Potency did it give?
Its Potency is inconclusive: 4.47 µM [inhibitor, single point].

`[O-]/C(=C(\C(=S)NCc1ccco1)[n+]1ccccc1)c1ccccc1Br` was tested. Which Potency did it give?
The Potency was inconclusive: 39.8 µM [inhibitor, single point].

Which Potency does the source give for `Cc1ccc(OCC(=O)c2cc(C)n(C3CC3)c2C)c([N+](=O)[O-])n1` here?
Its Potency is inconclusive: 22.4 µM [inhibitor, single point].

For `CN1/C(=C\C=C2/SC(=S)NC2=O)C(C)(C)c2ccccc21`, which Potency is on record?
Its Potency is active: 3.55 µM.

For `CCOC(=O)N1CCc2c(sc(NCc3ccc(OCC)cc3)c2C(=O)Nc2ccc(OC)cc2OC)C1`, which Potency is on record?
The Potency was inconclusive: 22.4 µM [inhibitor, partial curve].

Which Potency does the source give for `COc1ccc(OC2CCN(S(=O)(=O)c3ccc(OC)cc3)CC2)cc1` here?
The Potency was inconclusive: 7.08 µM [inhibitor, full curve, poor fit].

Which Potency does the source give for `COc1cc(NC(=O)CN(C)S(=O)(=O)c2ccc3[nH]c4c(c3c2)CCCC4)cc(OC)c1OC` here?
Its Potency is “inactive”.

With `Cn1cccc1CC(=O)N/N=C/C(Cl)=C/c1ccccc1` as the compound, how does the Potency read?
Its Potency is inconclusive: 15.8 µM [inhibitor, partial curve].

For `COc1ccc(C(C)(C)C)cc1NC(=O)c1cc(S(=O)(=O)N(C)C)ccc1N1CCCC1`, which Potency is on record?
Its Potency is “inactive”.

With `CC(/C=N/N1CCN(Cc2ccccc2)CC1)=C\c1ccccc1` as the compound, how does the Potency read?
Its Potency is inconclusive: 28.2 µM [inhibitor, partial curve].

`CC(=O)Nc1nonc1NC(=O)CSc1ncn[nH]1` was tested. Which Potency did it give?
Its Potency is inconclusive: 14.1 µM [inhibitor, partial curve].

For `CCN(C(=O)CSC1=Nc2ccccc2C2CC=NN12)C1CCS(=O)(=O)C1` (centres undefined), which Potency is on record?
Its Potency is inconclusive: 14.1 µM [inhibitor, partial curve].

For `Cc1ccc(N2NC(=O)/C(=C\c3cc4c(cc3[N+](=O)[O-])OCO4)C2=O)cc1C`, which Potency is on record?
The Potency was active: 14.1 µM.

`CCN(CC)C(=O)c1sc2nc(-c3cccs3)cc(-c3cccs3)c2c1N` was tested. Which Potency did it give?
Its Potency is inconclusive: 8.91 µM [inhibitor, partial curve].

`CN(C)/N=C/C=C1\CCC/C(=C\c2ccc(F)c(F)c2)C1=O` was tested. Which Potency did it give?
The Potency was “inactive”.
